Experimental data reported in ChEMBL document CHEMBL4888484, “Replenishing the malaria drug discovery pipeline: Screening and hit evaluation of the MMV Hit Generation Library 1 (HGL1) against asexual blood stage Plasmodium falciparum ,using a nano luciferase reporter read-out” (2022).
The campaign covered roughly 150,000 compounds. About 540 (0.36%) showed an effect of 50% or more. The list shows a part of the results.

Test system: Plasmodium falciparum
Assay: Primary screen in NF54 nanoGlo assay, in single point, at 2uM, 72h; a lower Z score goes with more inhibition
Type: functional, Erythrocyte
Conditions: timepoint 72 hour

Structure (SMILES)	% Inhibition	Z score
CCOC(=O)CN(CCOC)CC(=O)NCc1cccc(Cl)c1	-10%	1.25
CCCS(=O)(=O)N1CCC2(CC1)N[C@@H](Cc1ccccc1)C(=O)N2CC1CC1	-8%	1.19
Cc1cc(C(=O)N(c2ccc(O)cc2)S(=O)(=O)c2ccccc2)cc(O)n1	-3%	0.6
Cc1nc(-c2cccc(NC(=O)c3nnn(-c4ccc(F)cc4)n3)c2)cs1	-12%	2.26
Cn1nc(-c2cnccn2)cc1CNC(=O)c1cccn(C)c1=O	25%	-3.22
CC(C)(C)c1ccc2c(NC(=O)Cc3ccccc3C(=O)O)n[nH]c2n1	-13%	2.58
C[C@H](NC(=O)c1ccc(COc2ccc(Cl)cc2)cc1)c1ccccc1	-2%	0.34
Cc1noc(C)c1CN(C)C(=O)CCS(=O)(=O)C1CCCC1	-8%	0.99
O=S(=O)([O-])CCCn1cnc2ncc3c([n+]21)/C(=C/c1ccccc1)CCC3	-7%	1.27
Cc1cc(Oc2nc(N3CCCCC3)nc3c2CN(S(=O)(=O)c2ccccc2)CC3)ccc1F	-14%	1.93
NC(=O)CC[C@H]1CCCN(C(=O)N2CCc3ccccc32)C1	-2%	0.2
CC[C@H](C)NS(=O)(=O)c1cc(-c2cc(C)no2)sc1C	8%	-1.52
COCc1nc2ccccc2c(C)c1C(=O)OCc1csc(CC(=O)Nc2ccccc2C)n1	-10%	1.48
CC(Cc1cccc(F)c1)C(=O)N1CCC2(CCOCC2)C1C (stereo unspecified)	-6%	0.92
CCCCN(CC)C(=O)c1c(Cl)ccc(S(=O)(=O)CCOC)c1Cl	-7%	1.07
CS(=O)(=O)N1CCC(OC2CCN(C(=O)Nc3ccc(F)cc3F)CC2)CC1	-10%	1.24
O=S(=O)(c1cccnc1)N1CC[C@H](Oc2cnc3ccccc3n2)C1	10%	-1.88
CC(C)CCC1CCCN1CC1CCOC1 (stereo unspecified)	-6%	0.92
O=C(NCc1nccnc1-c1ccco1)Nc1nc(-c2ccccn2)cs1	1%	-0.15
NC(=O)c1ccc(NC(=O)c2ccc(Nc3ncccn3)cc2)cc1	-3%	0.34
O=C(NCC[C@H](O)c1cc2ccccc2o1)NC1CCOCC1	-3%	0.31

Structure (SMILES)	% Inhibition	Z score
Cc1cc(=O)c(C(=O)N(Cc2cccnc2)C2CCN(C)CC2)c[nH]1	-15%	2.62
O=C(NCCc1ccco1)c1ccc(-n2nnc3cccnc32)cc1	-21%	2.46
CC(C)(C)N1CC[C@H](NS(=O)(=O)c2cn[nH]c2)C1	-4%	0.73
CCn1cc(S(=O)(=O)N2C[C@@H](C(=O)NC)[C@H](c3nc(C)no3)C2)cn1	0%	-0.04
CC(C)(C)OC(=O)C(=O)N1CCC[C@@H]1COC(=O)c1ccccc1	-11%	1.51
COc1ccc(-c2c(C)nn3c(N4CCc5ccccc54)cc(C)nc23)cc1OC	-3%	0.36
COc1cccc(CC(=O)Nc2cnn(-c3ncncc3N(C)C)c2)c1	7%	-0.77
CCn1nc(C(=O)NCc2ccccc2F)cc1-c1ccc(Cl)s1	-6%	0.62
Cc1cnc(CNC(=O)c2cc(C)nc(C)n2)cn1	-12%	2.27
COCc1nc(C)nc(N2CCN(C(=O)c3ccco3)CC2)c1Cc1ccccc1F	-22%	3.18
C[C@H]1CC(=O)NCCN1C(=O)Cc1ccc(Cl)c(Cl)c1	-4%	0.61
COc1ccc(CN2CCNC(=O)C2(C)C)cc1OC[C@@H](O)CN1CCCCCCC1	-11%	2.11
O=C(O)c1ccc(-c2ccc(-c3nc(-c4ccccc4)c(-c4ccccc4)[nH]3)o2)cc1	-17%	1.98
O[C@H](COc1ccc2c(c1)CCC2)CN1CCCC1	-3%	0.57
CO[C@H]1CCCN(C(=O)Nc2ccc3sc(C(=O)N(C)C)cc3c2)C1	-9%	1.5
COc1ccc(S(=O)(=O)N2CC(N3C(=O)COC3=O)C2)cc1C	-8%	0.96
O=C(c1cc(F)cc(F)c1)N1CCN(Cc2cccc(-c3noc(-c4cccc(C(F)(F)F)c4)n3)c2)CC1	0%	0.01
N#CCNC(=O)c1ccc(C#N)c(Cl)c1	6%	-1.18
Cc1ccc2c(=O)c(C(=O)N3CCCC3)cn(CC(=O)NC3CCCCC3)c2n1	-10%	1.38
Cc1cccc(NC(=O)CC(=O)N2Cc3nc(C)n(C)c(=O)c3C2)c1C	-1%	0.26
Cc1ncsc1CCC(=O)N1CCc2onc(C(=O)N(C)C)c2C1	-6%	0.82

Structure (SMILES)	% Inhibition	Z score
C[C@@H](CN(C)c1cncc(-c2cccs2)n1)C(=O)O	4%	-0.56
Cc1cc(CNC(=O)NC2CCCCCCC2)no1	-4%	0.43
COC[C@H]1CN(S(=O)(=O)c2cccc(C)c2)CC12CCOCC2	-9%	1.2
CCN(CC)C(=O)c1cn([C@H]2CCCN(Cc3cccc4cccnc34)C2)nn1	-9%	1.1
Cc1nnc2n1CCC[C@@H]2NC(=O)N(C)CCOCC1CC1	-3%	0.38
O=C(NCc1cccnc1)[C@@H]1COC2(CCN(C(=O)c3ccc(F)cc3F)CC2)N1C(=O)c1ccccc1	-3%	0.48
CCc1cnc(Cn2nc(-c3ccccc3)cc(C(F)(F)F)c2=O)o1	-6%	0.55
c1cc2cn[nH]c2cc1NCC1CCCCC1	-3%	0.47
Cc1ccn(Cc2cc(-c3ccc(Cl)cc3)no2)c(=O)c1C#N	-2%	0.27
Cc1ccc(CN(Cc2ccncc2)C(=O)[C@@H]2CCCCO2)s1	-9%	1.41
CC[C@H](NS(=O)(=O)c1cc(C(N)=O)cs1)c1nc(C)c(C)s1	-11%	1.71
O=C(O)C[C@H]1COCCN1C(=O)c1cccc2c1CCC2	-11%	1.11
Cc1nnc(CC(=O)N(c2ccc3[nH]ccc3c2)[C@@H](C)CC(C)C)o1	-18%	2.96
C[C@H]1CN(C(=O)NCCc2ccccc2F)C[C@]1(O)C1CC1	-3%	0.55
CCCc1nnc(-c2ccc([C@H](C)N(C)C)cc2)s1	-6%	1.02
C[C@H](OC(=O)c1ccc2c(c1)CCCC2)C(=O)Nc1ccc(S(N)(=O)=O)cc1	29%	-3.22
O=c1c2cccnc2ncn1[C@H]1COC[C@@H]1N1CCCC1	-8%	0.71
CC(C)N1CCC(NC(=O)c2cc3c(s2)CCCC3)CC1	1%	-0.26
COc1ccc(CCNc2oc(CC(C)C)nc2C#N)cc1	4%	-0.47
Cc1ccc(S(=O)(=O)NCc2ccc(C(=O)NCCCN(Cc3ccccc3)C(C)C)cc2)cc1	-4%	0.68
CCn1cc(-c2nncn2-c2ccccc2)c(C)n1	-12%	1.43

Structure (SMILES)	% Inhibition	Z score
OCC1(c2ccccc2)CN(Cc2cc(Cl)ccc2F)C1	-13%	1.66
O=C(Nc1ccc(F)cn1)N1CC2(CCOCC2)[C@@H]2CCC[C@@H]21	-14%	2.81
c1cncc(C2CN(c3ncnc4[nH]ccc34)C2)c1	5%	-0.87
CC[C@H](C)N(Cc1ccccc1OS(=O)(=O)c1ccc(OC)cc1)C(=O)c1cccc(F)c1	20%	-2.85
CC(C)COc1ncccc1C(=O)N1CCN(CC(F)(F)F)C(=O)C1	-1%	0.07
Cc1cc(C)cc(NC(=O)CN2C(=O)CCc3cc(S(=O)(=O)N4CCCC4)ccc32)c1	-7%	1.38
CS(=O)(=O)CCC(=O)N1CCC(F)(F)CC1	3%	-0.58
CCN1CCNC(=O)[C@@H]1CC(=O)NCc1ncc2c(n1)CCC2	-6%	1.19
COc1cc(CNS(=O)(=O)N(C)C)ccn1	-6%	1.13
CC(C(=O)O)c1cccc(NC(=O)C(C)c2cccs2)c1 (stereo unspecified)	3%	-0.53
C[C@@H](C(=O)NCc1ccccc1)n1c2ccccc2c2cn[nH]c(=O)c21	8%	-1.22
CCS(=O)(=O)N1CCCc2cc(NS(=O)(=O)Cc3ccc(C)cc3)ccc21	20%	-2.55
Cc1cccc(NC(=O)N2CCCN(c3nc(Cc4ccccc4)nc4c3c(C)nn4-c3ccccc3)CC2)c1C	14%	-1.51
CC1CCN(C2(CN)CCCCC2)CC1	0%	0.07
CO[C@H]1CCOC[C@@H]1NC(=O)c1cc2cc(C)c(C)cc2o1	-13%	1.53
Cc1nc(C)c(-c2cc(F)ccc2OC[C@H]2CCOC2)s1	0%	0.02
Cc1ccc(CN2CCC[C@H](c3nnc(Cn4cccn4)n3C)C2)c(F)c1	-17%	2.16
COc1ccc(CCc2nc(NC(=O)c3ccccn3)n[nH]2)cc1	-3%	0.4
COc1ccccc1[C@H]1CN(Cc2cccc3cccnc23)C[C@@H]1C(=O)O	-7%	1.17
Cc1cc(C)cc(NC(=O)Cc2nc(C)c(C(=O)NCc3ccccc3)s2)c1	44%	-5.63
